# Some of the results follow.
# B1: PhoQ; a variant is named by its letters at X, in order, P23837 (parent)
# chain: MKKLLRLFFPLSLRVRFLLATAAVVLVLSLAYGMVALIGYSVSFDKTTFRLLRGESNLFYTLAKWENNKLHVELPENIDKQSPTMTLIYDENGQLLWAQRDVPWLMKMIQPDWLKSNGFHEIEADVNDTSLLLSGDHSIQQQLQEVREDDDDAEMTHSVAVNVYPATSRMPKLTIVVVDTIPVELKSSYMVWSWFIYVLSANLLLVIPLLWVAAWWSLRPIEALAKEVRELEEHNRELLNPATTRELTSLVRNLNRLLKSERERYDKYRTTLTDLTHSLKTPLXXLQXXLRSLRSEKMSVSDAEPVMLEQISRISQQIGYYLHRASMRGGTLLSRELHPVAPLLDNLTSALNKVYQRKGVNISLDISPEISFVGEQNDFVEVMGNVLDNACKYCLEFVEISARQTDEHLYIVVEDDGPGIPLSKREVIFDRGQRVDTLRPGQGVGLAVAREITEQYEGKIVAGESMLGGARMEVIFGRQHSAPKDE
# Variants of: B1
# Assay: enrichment ratio after two sorts for PhoP signalling (ratio (wild type AVST 3.29)); higher = more functional
# Details: with PhoP (E. coli)
row,Variant,enrichment ratio
1,RREV,≤ 0.25
2,DYKC,≤ 0.25
3,KDWR,≤ 0.25
4,AFIM,≤ 0.25
5,PYFD,≤ 0.25
6,IMVD,≤ 0.25
7,FDYQ,≤ 0.25
8,YFID,≤ 0.25
9,IWLY,≤ 0.25
10,TPQA,≤ 0.25
11,RVPC,≤ 0.25
12,SWAW,≤ 0.25
13,ASMN,19.6
14,RGFI,≤ 0.25
15,EFAV,≤ 0.25
16,SLGH,0.692
17,HECF,≤ 0.25
18,NDKT,≤ 0.25
19,WAWH,≤ 0.25
20,RTGP,≤ 0.25
21,GKDW,≤ 0.25
22,HVQV,≤ 0.25
23,PITE,≤ 0.25
24,LLQC,≤ 0.25

row,Variant,enrichment ratio
1,ANNC,≤ 0.25
2,VNRI,≤ 0.25
3,KMCW,≤ 0.25
4,KGLC,≤ 0.25
5,HMNY,≤ 0.25
6,NRQW,≤ 0.25
7,VDGP,≤ 0.25
8,DWYM,≤ 0.25
9,QDSQ,≤ 0.25
10,GTMQ,≤ 0.25
11,WFKW,≤ 0.25
12,FVLY,1.57
13,SQPR,≤ 0.25
14,PMLV,≤ 0.25
15,ALLK,1.91
16,TSHH,8.77
17,GLDG,≤ 0.25
18,VMHF,≤ 0.25
19,REVW,≤ 0.25
20,MEAP,≤ 0.25
21,VLLR,≤ 0.25
22,IRDA,≤ 0.25
23,NNVP,≤ 0.25
24,LDSE,≤ 0.25

row,Variant,enrichment ratio
1,AFRK,≤ 0.25
2,FYIW,≤ 0.25
3,NPPC,≤ 0.25
4,YQAW,≤ 0.25
5,VQSH,≤ 0.25
6,ARWV,≤ 0.25
7,TGQK,≤ 0.25
8,MKCV,≤ 0.25
9,GCRT,≤ 0.25
10,MMRK,≤ 0.25
11,KKFP,≤ 0.25
12,MVER,≤ 0.25
13,KLCY,≤ 0.25
14,PFRQ,≤ 0.25
15,QYPT,≤ 0.25
16,DQSW,≤ 0.25
17,WHRD,≤ 0.25
18,MPQP,≤ 0.25
19,WSMP,≤ 0.25
20,DVAK,≤ 0.25
21,HLWD,≤ 0.25
22,FSPT,≤ 0.25
23,INKA,≤ 0.25
24,ENPS,≤ 0.25

row,Variant,enrichment ratio
1,FCPP,≤ 0.25
2,QQRF,≤ 0.25
3,MKDR,≤ 0.25
4,RPPP,≤ 0.25
5,TCSL,16.4
6,RLAY,≤ 0.25
7,NWHK,≤ 0.25
8,KNTS,≤ 0.25
9,VSSP,≤ 0.25
10,IITR,≤ 0.25
11,LFWY,≤ 0.25
12,HHQW,≤ 0.25
13,MTNS,≤ 0.25
14,VSYN,≤ 0.25
15,ESPE,≤ 0.25
16,GKFK,≤ 0.25
17,GMHF,≤ 0.25
18,IDTQ,≤ 0.25
19,KEQI,≤ 0.25
20,WYKS,≤ 0.25
21,IDGP,≤ 0.25
22,EQSG,≤ 0.25
23,WLGN,≤ 0.25
24,KFDV,≤ 0.25

row,Variant,enrichment ratio
1,LWRR,≤ 0.25
2,PYWV,≤ 0.25
3,SIDK,≤ 0.25
4,GSKT,≤ 0.25
5,LYGW,≤ 0.25
6,SWHQ,≤ 0.25
7,VFYY,≤ 0.25
8,RPHK,≤ 0.25
9,MGTS,≤ 0.25
10,LMYP,≤ 0.25
11,VNCC,0.513
12,RGLK,≤ 0.25
13,WHVY,≤ 0.25
14,WNRW,≤ 0.25
15,KLPW,≤ 0.25
16,LDGC,≤ 0.25
17,LMLV,≤ 0.25
18,APSE,≤ 0.25
19,QGCF,≤ 0.25
20,EYQY,≤ 0.25
21,VMDG,≤ 0.25
22,LKYN,≤ 0.25
23,TEVM,10.6
24,LAKK,≤ 0.25

row,Variant,enrichment ratio
1,QAWW,≤ 0.25
2,LGRN,≤ 0.25
3,TPEL,≤ 0.25
4,FTYW,≤ 0.25
5,RSYT,≤ 0.25
6,FQFP,≤ 0.25
7,THSA,8.45
8,HNQH,≤ 0.25
9,SRLG,≤ 0.25
10,QHFQ,≤ 0.25
11,FANY,≤ 0.25
12,PQEC,≤ 0.25
13,FDRY,≤ 0.25
14,HSPG,≤ 0.25
15,IFTH,≤ 0.25
16,YEAY,≤ 0.25
17,NCRL,≤ 0.25
18,YMAP,≤ 0.25
19,IGIC,≤ 0.25
20,VNKG,≤ 0.25
21,IFEC,≤ 0.25
22,TTFP,≤ 0.25
23,YVIC,≤ 0.25
24,KALK,≤ 0.25

row,Variant,enrichment ratio
1,YAGW,≤ 0.25
2,IEDR,≤ 0.25
3,IQRI,≤ 0.25
4,YLFR,≤ 0.25
5,QGFS,4.45
6,FMHN,≤ 0.25
7,GGNH,≤ 0.25
8,YLER,≤ 0.25
9,VLHF,≤ 0.25
10,VQVV,≤ 0.25
11,GMNC,≤ 0.25
12,MNDQ,≤ 0.25
13,SFPW,≤ 0.25
14,RAAI,≤ 0.25
15,TITA,3.34
16,GWPN,≤ 0.25
17,KCFQ,≤ 0.25
18,IYHF,≤ 0.25
19,VQTT,≤ 0.25
20,SIVA,5.06
21,SPFW,≤ 0.25
22,LYSH,≤ 0.25
23,RSKV,≤ 0.25
24,TDKI,≤ 0.25

row,Variant,enrichment ratio
1,HGAN,≤ 0.25
2,CLFM,≤ 0.25
3,PNQV,≤ 0.25
4,MSAH,1.79
5,FFGP,≤ 0.25
6,NGGW,≤ 0.25
7,VCCT,≤ 0.25
8,HKCF,≤ 0.25
9,WTPA,≤ 0.25
10,FVYV,≤ 0.25
11,NKDH,≤ 0.25
12,MVVQ,≤ 0.25
13,GLQP,≤ 0.25
14,SINW,≤ 0.25
15,ANAH,1.65
16,RDVW,≤ 0.25
17,EFPP,≤ 0.25
18,DTRW,≤ 0.25
19,PSPR,≤ 0.25
20,SHCR,≤ 0.25
21,FRPG,≤ 0.25
22,KLHT,≤ 0.25
23,RVQK,≤ 0.25
24,DVRI,≤ 0.25

row,Variant,enrichment ratio
1,IGMI,3.17
2,NYWG,≤ 0.25
3,STMW,9.94
4,KLII,≤ 0.25
5,GCIW,≤ 0.25
6,VSWW,≤ 0.25
7,SDMH,3.34
8,LESK,≤ 0.25
9,YEKQ,≤ 0.25
10,KPIQ,≤ 0.25
11,WVPY,≤ 0.25
12,NASI,≤ 0.25
13,WFGS,≤ 0.25
14,GFKE,≤ 0.25
15,LRVQ,≤ 0.25
16,MSRA,≤ 0.25
17,QITG,≤ 0.25
18,KYKD,≤ 0.25
19,DAVG,≤ 0.25
20,TGCK,37.2
21,SLLF,0.885
22,LPEL,≤ 0.25
23,MSDT,≤ 0.25
24,IPGS,≤ 0.25

row,Variant,enrichment ratio
1,NRIR,≤ 0.25
2,KTCI,≤ 0.25
3,HKVE,≤ 0.25
4,MLTE,≤ 0.25
5,MGHM,5.76
6,FGSW,≤ 0.25
7,FGTN,≤ 0.25
8,NFWN,≤ 0.25
9,PEQK,≤ 0.25
10,GIHV,≤ 0.25
11,TEKS,≤ 0.25
12,NSVF,≤ 0.25
13,FHKQ,≤ 0.25
14,MITN,≤ 0.25
15,ATIW,≤ 0.25
16,SYFP,≤ 0.25
17,IRIK,≤ 0.25
18,LDPP,≤ 0.25
19,NPLR,≤ 0.25
20,WSSE,≤ 0.25
21,AWKP,≤ 0.25
22,QLWV,≤ 0.25
23,LRNM,≤ 0.25
24,CPHF,≤ 0.25

row,Variant,enrichment ratio
1,GMTE,≤ 0.25
2,KTSF,≤ 0.25
3,QVPP,≤ 0.25
4,NEHP,≤ 0.25
5,AKTW,≤ 0.25
6,VRPM,≤ 0.25
7,VNNE,≤ 0.25
8,IWLG,≤ 0.25
9,EGVY,≤ 0.25
10,TDHY,≤ 0.25
11,DFLT,≤ 0.25
12,DFET,≤ 0.25
13,VMFL,≤ 0.25
14,LEGA,≤ 0.25
15,IFLV,≤ 0.25
16,NKTW,≤ 0.25
17,KNRT,≤ 0.25
18,KYPT,≤ 0.25
19,FSGM,≤ 0.25
20,WMFM,≤ 0.25
21,TIDM,≤ 0.25
22,DLFK,≤ 0.25
23,ADCY,≤ 0.25
24,RRWP,≤ 0.25

row,Variant,enrichment ratio
1,KCNF,≤ 0.25
2,MEGF,≤ 0.25
3,YDCR,≤ 0.25
4,EIYH,≤ 0.25
5,IQQD,≤ 0.25
6,HESV,≤ 0.25
7,DHVH,≤ 0.25
8,TSYI,6.42
9,RAGD,≤ 0.25
10,LLSH,≤ 0.25
11,FMFC,≤ 0.25
12,IGLE,≤ 0.25
13,AKQI,≤ 0.25
14,VTKP,≤ 0.25
15,LLCQ,≤ 0.25
16,PMLG,≤ 0.25
17,VCGP,≤ 0.25
18,QRLE,≤ 0.25
19,NMAM,≤ 0.25
20,LSPY,≤ 0.25
21,IIRI,≤ 0.25
22,HYRS,≤ 0.25
23,ETSK,≤ 0.25
24,YEYP,≤ 0.25

row,Variant,enrichment ratio
1,RGHL,0.34
2,VRAQ,≤ 0.25
3,HELW,≤ 0.25
4,WYRW,≤ 0.25
5,YHRW,≤ 0.25
6,FGET,≤ 0.25
7,LQQH,≤ 0.25
8,RVRA,0.896
9,ACTH,2.87
10,RHRR,≤ 0.25
11,VEVF,≤ 0.25
12,QMAQ,≤ 0.25
13,EAFQ,≤ 0.25
14,LMQM,≤ 0.25
15,RGHM,≤ 0.25
16,TDSI,8.92
17,EFLA,≤ 0.25
18,IMEP,≤ 0.25
